Data published in PubChem BioAssay (NCI).
Values joined by “and” are separate entries in the source; they are usually repeats but may differ in a detail not shown here. Equal entries are not always repeated.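 Following 48 hours of exposure in 96-well plates, responses at five concentrations were used to interpolate endpoints linearly. At the GI50, growth is halved. The concentration for full growth arrest is given as TGI.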

Each compound was assayed on NCI-H322M lung (assay: NCI tumour cell line growth inhibition, 48 h).
`CN1C(=O)C(O)C[C@@H]1c1ccccc1` (stereo partly specified) gave a TGI of over 100 µM.
`O=C([O][Sn]([O]C(=O)c1ccccn1)([c]1ccccc1)[c]1ccccc1)c1ccccn1` gave a GI50 of 14.7 µM and a TGI of 28.6 µM.
`CN(C)CCSS(=O)(=O)O` gave a TGI of over 100 µM.
In the case of `O=[N+]([O-])c1cccc(N=Nc2c(O)c(S(=O)(=O)O)cc3cc(S(=O)(=O)O)ccc23)c1`, the TGI is reported as over 100 µM.
With `O=C1c2c(O)cccc2-c2nn(CCNCCO)c3ccc(NCCNCCO)c1c23` the TGI was 5.77 µM.
`C=CCOn1c(C=C)nc2ccc(C)cc21` gave a TGI of 47.2 µM.
`O=S(=O)(NCn1ccc2ccccc21)c1ccccc1` showed a TGI of over 100 µM.
Work on `CN1CC2=C(NC(=S)NC2c2ccccc2)/C(=C/c2ccccc2)C1` (stereo unspecified) yielded a TGI of over 100 µM.
`CCOC(=O)c1cc2c([N+](=O)[O-])c(N)ccc2s1` gave a TGI of over 100 µM.
`CC(=O)OCC(=O)[C@@]12OC(C)(C)O[C@@H]1C[C@H]1[C@@H]3CC(C=O)=C4C=C(OCCCl)CC[C@]4(C)[C@@]3(F)[C@@H](O)C[C@@]12C` gave a TGI of 96.4 µM.
`Cc1nn(-c2ccccc2)c(C)c1/C=N/N=C1\S/C(=C\c2ccc(Cl)cc2)C(=O)N1c1ccccc1` was tested, and the TGI was over 100 µM.
With `O=c1c(-c2ccccc2)c(SCCO)n(-c2ccccc2)c(=S)n1-c1ccccc1` the TGI was over 100 µM.
In the case of `Cc1c2c(c(C)c3c4c(oc13)CCCC4)C=NCC2`, the TGI is reported as 28 µM.
Work on `Nc1nc(Cl)cc(NC23CC4CC(CC(C4)C2)C3)n1` yielded a TGI of over 100 µM.
Work on `COc1cc(NC(=O)CCSc2nc3ccc(C)cc3c(=O)n2Cc2ccccc2)cc(OC)c1OC` yielded a GI50 of 70.5 µM and a TGI of over 100 µM.
In the case of `Cc1cc(OC(=O)NCn2cc(-c3ccccc3)nn2)ccc1Cl`, the TGI is reported as over 100 µM.
`CN(C)CCn1c(CO)nc2c1c(=O)n(C)c(=O)n2C` showed a TGI of over 100 µM.
For `Cc1nnc2n1N=C(c1ccc(Cl)cc1Cl)/C(=C/c1ccc(-c3ccc([N+](=O)[O-])cc3Cl)o1)S2`, the GI50 was over 100 µM and the TGI was over 100 µM.
`C[C@]12CC[C@H](O)CC1=CC[C@@H]1C2CC[C@]2(C)Nc3c(cnn3-c3ccccc3)CC12` (stereo partly specified) showed a TGI of 9.61 µM.
Compound `CN(C)c1nc2ccccc2c2c1c1c(n2Cc2ccccc2)-c2ccccc2C1=O` has a GI50 of over 100 µM and a TGI of over 100 µM.
With `CCc1cc2c(c3c1CCCC3=O)CC1(Cc3ccc(C(=O)OC)cc3C1)C2` (stereo unspecified) the TGI was over 100 µM.
With `COc1ccc(/C(Cl)=C/c2cc(OC)ccc2OC)cc1` the TGI was over 100 µM.
In the case of `CC(Oc1ccccc1Cl)C(=O)NN1C(=O)CSC1c1ccccc1` (stereo unspecified), the TGI is reported as over 100 µM.
`O=C(Nn1c(-c2ccccc2)nc2ccccc2c1=O)c1ccccc1O` showed a TGI of over 100 µM.
`COC(=O)COc1ccc(/C=C2/N=C(c3ccccc3)N(c3c(C)n(C)n(-c4ccccc4)c3=O)C2=O)cc1` was tested, and the GI50 was 24.8 µM and the TGI was 61.7 µM.
In the case of `Cc1nc(Nc2ccccn2)sc1C(=O)/C=C/c1ccc(Cl)cc1`, the GI50 is reported as 0.633 µM and the TGI is reported as over 100 µM.
`CC1(C)CC(=O)C2(CC(CSc3ccccc3)C(CS(=O)(=O)c3ccccc3)C2)C(=O)C1` (stereo unspecified) gave a TGI of over 100 µM.
`CC1=Cc2ccc(C)cc2C(=O)C1=O` gave a TGI of 37.4 µM.
For `CCOP(=O)(OCC)/C(=C/c1cccs1)CC(C)=O`, the TGI was over 100 µM.
In the case of `Cc1ccccc1-c1nc2c(C(=O)NCCN(C)C)cccc2[nH]1`, the TGI is reported as over 100 µM.
With `COc1ccc(-c2nc(-c3nc4ccc(F)cc4[nH]3)c3ccccn23)cc1` the GI50 was 9.53 µM and the TGI was over 100 µM.
For `CN(C)CCCNc1ccc2nnn3c4ccc(O)cc4c(=O)c1c23`, the TGI was 18.2 µM.
`Cn1c(=O)oc2nc(-c3ccccc3)cc(C(F)(F)F)c21` showed a TGI of over 100 µM.
`C=C1C(=O)OC2CC(C)C3CC(O)OC(OCC)C3(C)CC12` (stereo unspecified) showed a TGI of over 67.7 µM.
In the case of `COc1cnc2c(c1)C(=O)c1c-2n(CCCNCCO)c(=O)c2ccncc12`, the GI50 is reported as 1.87 µM and the TGI is reported as 24.8 µM.
With `CC1CCSC(N(C(=O)N(C)c2ccccc2)c2ccccc2)=N1` (stereo unspecified) the TGI was over 100 µM.
Work on `Cc1c(NC(=S)NC(=O)c2ccc([N+](=O)[O-])cc2)c(=O)n(-c2ccccc2)n1C` yielded a TGI of over 100 µM.
`Cc1c2cc(Cl)c3ccccc3c2c[n+]2ccccc12` was tested, and the GI50 was 2.62 µM and the TGI was 32.8 µM.
`C#Cc1c(C)c(/C=C/C(C)=C/C(=O)OC)n(C)c1C` gave a TGI of over 100 µM.
For `CC(C)Cc1ccc(C(C)CC2=CCC(CN(C)C)C2=O)cc1` (stereo unspecified), the TGI was 31.4 µM.
Compound `N#Cc1cc2c(n(C3OC(CO)C(O)C(O)C3O)c1=S)CCCCCC2` (stereo unspecified) has a TGI of over 100 µM.
For `COc1ccc(C(=O)C(CC2C(=O)NC(=O)NC2=O)c2ccc(OC)cc2)cc1` (stereo unspecified), the TGI was over 100 µM.
With `CC(=O)[O-].[Mn+3].[O-]c1ccccc1C=NCCNCCN=Cc1ccccc1[O-]` the GI50 was over 100 µM and the TGI was over 100 µM.
`COc1ccc(C(=O)CC(c2ccccc2)[C@H]2C(c3ccc(OC)cc3)=Nc3c(nc(SC)n(C)c3=O)NC2c2ccccc2)cc1` (stereo partly specified) was tested, and the TGI was over 100 µM.
With `COc1ccc(C(O)c2cc3c(N)c(C(=O)Nc4cccc(Cl)c4)sc3nc2C)cc1` (stereo unspecified) the GI50 was 2.18 µM and the TGI was over 64.6 µM.
Work on `O=C(Cc1ccc(Cl)c(Cl)c1)NCC1(N2CCCCC2)CCCCC1` yielded a TGI of over 100 µM.
`C=CCC1=C(C)C[C@@H]2CCC(=O)C=C12` was tested, and the TGI was over 100 µM.
`NCC(O)CSCc1ccc(Cl)cc1` (stereo unspecified) gave a TGI of over 100 µM.
For `Cn1cc(-c2ccc3nnc(Sc4ccc5ncccc5c4)n3n2)cn1`, the GI50 was over 100 µM and the TGI was over 100 µM.
Work on `O=c1/c(=C\c2ccc(F)cc2)sc2n1C(c1ccc(F)cc1)C1=C(N=2)c2ccc3ccccc3c2OCC1` (stereo unspecified) yielded a GI50 of over 100 µM and a TGI of over 100 µM.
Compound `c1ccc2c(c1)SCCCSCCSCCCS2` has a TGI of over 100 µM.
In the case of `CCOP(=O)(O)CN1CCNCCN(CP(=O)(O)OCC)CCNCC1`, the TGI is reported as over 100 µM.
In the case of `CC1=C2C(=CO[C@H](C)[C@H]2C)C(=O)C(C(=O)O)=C1O`, the TGI is reported as 63.8 µM and 66.8 µM.
For `COC[C@@H](N=Cc1ccc([N+](=O)[O-])cc1)C(C)C`, the TGI was over 100 µM.
`COC(=O)CC(NC(=O)OCc1ccccc1)C(C(=O)OCc1ccccc1)C(C)(OC)OC` (stereo unspecified) was tested, and the TGI was over 100 µM.
Work on `C=CC[n+]1c2ccccc2n2cc([N+](=O)[O-])ccc21` yielded a TGI of over 100 µM.
`O=C(N/N=C/C=C/c1ccccc1)c1ccccc1Nc1ccccc1C(=O)N/N=C/C=C/c1ccccc1` was tested, and the TGI was over 100 µM.
With `O=C(Nc1ccccc1C(=O)NCc1ccccc1)/C(=C/c1ccccc1)NC(=O)c1ccccc1` the TGI was over 100 µM.
`CC(C)=CCNc1nc(Cl)nc2nc[nH]c12` gave a TGI of 88.2 µM.
With `Cc1nc(N)c(N2CCN(CN)CC2)c(=O)[nH]1` the TGI was over 100 µM.
Work on `O=C(c1cccs1)N1CCN(C(=O)c2cccs2)C1=S` yielded a TGI of 28.6 µM.
In the case of `CC(C)/C(Cl)=N\OC(NC(=O)P(=O)(c1ccccc1)c1ccccc1)(C(F)(F)F)C(F)(F)F`, the TGI is reported as 38.7 µM.
Compound `COc1ccc(C(=O)NNc2nc(Cl)nc(N3CCN(C(c4ccccc4)c4ccccc4)CC3)n2)cc1` has a GI50 of 1.74 µM and a TGI of 4.43 µM.
With `CCOC(=O)CCn1ncc(Cl)c(Cl)c1=O` the TGI was 27.1 µM.
`O=c1[nH]c2nc(NC3CCOCC3)ncc2cc1Oc1ccc(F)cc1F` gave a GI50 of over 25 µM and a TGI of over 25 µM.
In the case of `COc1cc2c(cc1OCCCCCCN1CCN(CC(=O)Nc3ccc(Cl)cc3C(=O)c3ccccc3Cl)CC1)N=CC1CCCN1C2=O` (stereo unspecified), the GI50 is reported as 0.514 µM and the TGI is reported as 1.16 µM.
`O=c1cc(N/N=C/c2ccc(F)cc2)c2cc(Cl)ccc2[nH]1` showed a GI50 of 22.2 µM and a TGI of over 100 µM.
For `COc1ccc(-c2oc3cc(O)cc(O)c3c(=O)c2OC)cc1`, the TGI was over 100 µM.
In the case of `CC(C)(C)OC(=O)NCCCn1c2c(c3ccccc3c1=O)C(=O)c1ccccc1-2`, the GI50 is reported as 76.9 µM and the TGI is reported as over 100 µM.
`Cc1ccc(S(=O)(=O)Nn2c(O)c(C#N)c(-c3ccc(Cl)cc3)c(C#N)c2=O)cc1` was tested, and the TGI was over 100 µM.
Compound `O=C(Oc1ccc(CO[N+](=O)[O-])cc1)c1ccccc1` has a GI50 of 0.437 µM and a TGI of 1.49 µM.
In the case of `N/N=C1\C(=O)N(c2ccc(Cl)cc2Cl)C(=O)C(=O)C1c1nc2ccccc2o1` (stereo unspecified), the TGI is reported as over 100 µM.
For `COc1cc(C2c3cc4c(cc3C3OC[C@@H]2C3CO)OCO4)cc(OC)c1OC` (stereo partly specified), the TGI was over 100 µM.
Work on `Cc1nc2c(n1C)C(=O)c1ccccc1C2=O` yielded a GI50 of 33.8 µM and a TGI of over 100 µM.
Compound `C#CCn1c(=O)c(C)cn(/C(=C\C(=O)OCC)C(=O)OCC)c1=O` has a TGI of 43.8 µM.
In the case of `O=C1CCC(N2C(=O)c3ccccc3C2=O)C(=O)N1` (stereo unspecified), the TGI is reported as over 100 µM.
`CCN(c1cc(-c2ccc(CN3CCOCC3)cc2)cc(C(=O)NCc2c(C)cc(C)[nH]c2=O)c1C)C1CCOCC1` was tested, and the GI50 was 29.6 µM and the TGI was over 78.1 µM.
Compound `O=C1OC[C@H]2[C@@H]1[C@H]1O[C@@H]2C2=C(CCC2)C1=O` has a TGI of over 100 µM.
With `COc1ccc(CCc2cc(OC)cc(OC)c2)cc1` the TGI was over 100 µM.
For `C=C(C)[C@H]1C2=CC(C)=C(O2)[C@@H](O[C@@H]2c3oc(cc3C)[C@H](C(=C)C)[C@H]3C=C(CC[C@H]2C(=C)C)C(=O)O3)[C@H](C(=C)C)CCC2=C[C@H]1OC2=O`, the TGI was over 100 µM.
With `CC(C)C(C/C=C1\CC(CO)(COC(=O)C2CCCCC2)OC1=O)C(C)C` (stereo unspecified) the TGI was 36.8 µM.
In the case of `CC(C)=CCC(OC(=O)C=C(C)C)C1=CC(=O)c2c(O)ccc(O)c2C1=O` (stereo unspecified), the GI50 is reported as 18.6 µM and the TGI is reported as 36.3 µM and 8.14 µM.
`COc1cccc(N=N/C(=N\NC(=O)c2ccc(C)cc2)c2ccc(N(CCC#N)CCC#N)cc2C)c1` was tested, and the TGI was over 100 µM.
`COc1ccc2cc(CNCCCCCCNCc3ccc4cc(OC)ccc4c3)ccc2c1` showed a TGI of 1.97 µM.
`CC(C)(C)n1c(=O)[nH]c(=O)n1C(C)(C)C` showed a TGI of over 100 µM.
For `C=C(C)CC1(O[Si](C)(C)C)C(=O)C(OCC)=C1OCC` (stereo unspecified), the TGI was over 100 µM.
`COc1cccc(C=O)c1[O-].[O]=[U](=[O])([OH2+])[OH2+]` was tested, and the TGI was over 100 µM.
With `O=C(Nc1ccc(-c2nc(-c3cccc(OCCN4CCOCC4)c3)c(-c3ccnc(Br)c3)[nH]2)cc1)c1ccccc1` the GI50 was 3.37 µM and the TGI was over 100 µM.
